The list shows a part of the results.
test system: PF3D7_0420300 AP2 domain 1 (GST-tagged); experiment: gcPBM binding intensity (ln(normalized median fluorescence intensity)); higher = stronger DNA binding
Procedure, shortened: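 An Agilent 4 × 180k array of primer-extended double-stranded 36-bp intergenic genomic probes, with negative controls, was incubated for 1 h with GST-tagged P. falciparum DNA-binding domains expressed in E. coli. Alexa488 anti-GST antibody detected bound protein, scanned at 488 nm. Binding intensity is the highest Masliner-normalised natural-log median intensity across replicate spots of either probe orientation.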

Sequence | gcPBM binding intensity (ln)
AAAATTAAAATATCACGTACGAAGAAAAAATTAAGA [XGTACX_site6437] | 9.43
TACACCCACCAACACACACACACACTAATAAAAAAA [CACACA_site8060] | 10.1
CCTTTCCTAGCACATGCACACAAAAAAAAAAAAAAA [CACACA_site8396] | 9.12
GAGGGTATAATAAAAGCACACACAAAGATATAAATA [CACACA_site9087] | 9.84
CATGAATATTTATACATGCACACTAAAATAAAGAAT [CACACA_site2412] | 9.48
AAAAAATGCGACATGTGTACACATATATATATATAT [XGTACX_site1679] | 9.5
ACATTTTGTAAAGAATGTACATATATATATATATTC [XGTACX_site8004] | 9.16
TATATATATATATACACACACACACCCCAAAGCGTA [CACACA_site64] | 10.1
ATTATGAATTTTAATTGTACATTATTATAGAATGTA [XGTACX_site619] | 8.86
AGTTATTTTTATATTTCACACACATATACTTTTACA [CACACA_site9357] | 9.88
AATAATTCTTAAAGGTGTACAATATGTATATAAGAA [XGTACX_site595] | 9.47
AAAAATTCTTCCCAAGCATGCGCGCGTAAAATATTT [TGCATGCA_site77] | 9.2
AAATTTTTTATTAGTAGTACGCATAAATATATGTAT [XGTACX_site1934] | 9.23
AAAAAAATAAGACACACACACAAAAAAATAAAAATA [CACACA_site6357] | 10.1
AAAAAAAAAAGAAAAGGTACACAGAATATATATATA [XGTACX_site6914] | 9.45
AGATCATAATATTATACACACATTATGTATATGTAA [CACACA_site1490] | 9.45
TGAATACATAAATATAGTACATATATATATATATTA [XGTACX_site8756] | 9.13
TATAATATTATTTGAAGTACAAACATAAAAGAATTA [XGTACX_site3161] | 9.21
GAACCATTTTTTGGTATACACACGTAATTATAGAAT [CACACA_site1851] | 9.4
TACAAAAAATTATGGAGTACATATATAATATACAAT [XGTACX_site1004] | 9.3
TTTTGTTGTATGATAATTCTTTTATCAATATGTCTT [TGCATGCA_negctrl_site567] | 9.29
ACCAAATTATCAAATGGTACACATAAAATAATAAAA [XGTACX_site865] | 9.32
GTTTCTATTCACATTTTACACACGTCCATCGCATTT [CACACA_site9142] | 9.99
TAATTAACCTATGCATTCATATAGATACATAAATAT [CACACA_negctrl_site885] | 9.11
ACAAAAAAAAATATGTTAACTATATATATATATATA [CACACA_negctrl_site346] | 9.07

Source: the supplement of paper PMC11417369
